The supplement of paper PMC8728848
Some of the results follow.

Legend:
Assay in all cases: glycan array binding signal (z-score within array); higher = stronger binding
Details in all cases: glycan notation: IUPAC condensed, linker removed
[1] = target: Gal(b1-4)GlcNAc(b1-3)Gal(b1-4)Glc
In short: (§1)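 Arrays were curated from the Consortium for Functional Glycomics database, 3228 in total, and kept only where the protein sequence was available. Binding is expressed as a within-array Z-score. This score was averaged across arrays of the same protein sequence at different concentrations or buffers and across linkers, and negative values can be read as non-binding.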

[2] = target: Gal(b1-4)GlcNAc(b1-3)Gal(b1-4)GlcNAc
In short: as §1

[3] = target: Gal(b1-4)GlcNAc(b1-3)Gal(b1-4)GlcNAc(b1-2)Man(a1-3)[Gal(b1-4)GlcNAc(b1-3)Gal(b1-4)GlcNAc(b1-2)Man(a1-6)]Man(b1-4)GlcNAc(b1-4)GlcNAc
In short: as §1

[4] = target: Gal(b1-4)GlcNAc(b1-3)Gal(b1-4)GlcNAc(b1-2)Man(a1-3)[Gal(b1-4)GlcNAc(b1-3)Gal(b1-4)GlcNAc(b1-2)Man(a1-6)]Man(b1-4)GlcNAc(b1-4)[Fuc(a1-6)]GlcNAc
In short: as §1

[5] = target: Gal(b1-4)GlcNAc(b1-3)Gal(b1-4)GlcNAc(b1-2)[Gal(b1-4)GlcNAc(b1-3)Gal(b1-4)GlcNAc(b1-6)]Man(a1-6)[Gal(b1-4)GlcNAc(b1-3)Gal(b1-4)GlcNAc(b1-2)Man(a1-3)]Man(b1-4)GlcNAc(b1-4)GlcNAc
In short: as §1

[6] = target: Gal(b1-4)GlcNAc(b1-3)Gal(b1-4)GlcNAc(b1-2)[Gal(b1-4)GlcNAc(b1-3)Gal(b1-4)GlcNAc(b1-6)]Man(a1-6)[Gal(b1-4)GlcNAc(b1-3)Gal(b1-4)GlcNAc(b1-2)Man(a1-3)]Man(b1-4)GlcNAc(b1-4)[Fuc(a1-6)]GlcNAc
In short: as §1

[7] = target: Gal(b1-4)GlcNAc(b1-3)Gal(b1-4)GlcNAc(b1-3)Gal(b1-4)GlcNAc
In short: as §1

[8] = target: Gal(b1-4)GlcNAc(b1-3)Gal(b1-4)GlcNAc(b1-3)Gal(b1-4)GlcNAc(b1-2)Man(a1-3)[Gal(b1-4)GlcNAc(b1-3)Gal(b1-4)GlcNAc(b1-3)Gal(b1-4)GlcNAc(b1-2)Man(a1-6)]Man(b1-4)GlcNAc(b1-4)GlcNAc
In short: as §1

[9] = target: Gal(b1-4)GlcNAc(b1-3)Gal(b1-4)GlcNAc(b1-3)Gal(b1-4)GlcNAc(b1-2)Man(a1-3)[Gal(b1-4)GlcNAc(b1-3)Gal(b1-4)GlcNAc(b1-3)Gal(b1-4)GlcNAc(b1-2)Man(a1-6)]Man(b1-4)GlcNAc(b1-4)[Fuc(a1-6)]GlcNAc
In short: as §1

[10] = target: Gal(b1-4)GlcNAc(b1-3)Gal(b1-4)GlcNAc(b1-3)Gal(b1-4)GlcNAc(b1-2)[Gal(b1-4)GlcNAc(b1-3)Gal(b1-4)GlcNAc(b1-3)Gal(b1-4)GlcNAc(b1-6)]Man(a1-6)[Gal(b1-4)GlcNAc(b1-3)Gal(b1-4)GlcNAc(b1-3)Gal(b1-4)GlcNAc(b1-2)Man(a1-3)]Man(b1-4)GlcNAc(b1-4)[Fuc(a1-6)]GlcNAc
In short: as §1

[11] = target: Gal(b1-4)GlcNAc(b1-3)Gal(b1-4)GlcNAc(b1-3)Gal(b1-4)GlcNAc(b1-3)Gal(b1-4)GlcNAc(b1-2)Man(a1-3)[Gal(b1-4)GlcNAc(b1-3)Gal(b1-4)GlcNAc(b1-3)Gal(b1-4)GlcNAc(b1-3)Gal(b1-4)GlcNAc(b1-2)Man(a1-6)]Man(b1-4)GlcNAc(b1-4)GlcNAc
In short: as §1

[12] = target: Gal(b1-4)GlcNAc(b1-3)Gal(b1-4)GlcNAc(b1-3)Gal(b1-4)GlcNAc(b1-3)Gal(b1-4)GlcNAc(b1-2)Man(a1-3)[Gal(b1-4)GlcNAc(b1-3)Gal(b1-4)GlcNAc(b1-3)Gal(b1-4)GlcNAc(b1-3)Gal(b1-4)GlcNAc(b1-2)Man(a1-6)]Man(b1-4)GlcNAc(b1-4)[Fuc(a1-6)]GlcNAc
In short: as §1

[13] = target: Gal(b1-4)GlcNAc(b1-3)Gal(b1-4)GlcNAc(b1-3)Gal(b1-4)GlcNAc(b1-3)Gal(b1-4)GlcNAc(b1-2)[Gal(b1-4)GlcNAc(b1-3)Gal(b1-4)GlcNAc(b1-3)Gal(b1-4)GlcNAc(b1-3)Gal(b1-4)GlcNAc(b1-6)]Man(a1-6)[Gal(b1-4)GlcNAc(b1-3)Gal(b1-4)GlcNAc(b1-3)Gal(b1-4)GlcNAc(b1-3)Gal(b1-4)GlcNAc(b1-2)Man(a1-3)]Man(b1-4)GlcNAc(b1-4)[Fuc(a1-6)]GlcNAc
In short: as §1

[14] = target: Gal(b1-4)GlcNAc(b1-3)Gal(b1-4)GlcNAc(b1-3)Gal(b1-4)GlcNAc(b1-3)Gal(b1-4)GlcNAc(b1-3)Gal(b1-4)GlcNAc(b1-2)Man(a1-3)[Gal(b1-4)GlcNAc(b1-3)Gal(b1-4)GlcNAc(b1-3)Gal(b1-4)GlcNAc(b1-3)Gal(b1-4)GlcNAc(b1-3)Gal(b1-4)GlcNAc(b1-2)Man(a1-6)]Man(b1-4)GlcNAc(b1-4)GlcNAc
In short: as §1

[15] = target: Gal(b1-4)GlcNAc(b1-3)Gal(b1-4)GlcNAc(b1-3)Gal(b1-4)GlcNAc(b1-3)Gal(b1-4)GlcNAc(b1-3)Gal(b1-4)GlcNAc(b1-2)Man(a1-3)[Gal(b1-4)GlcNAc(b1-3)Gal(b1-4)GlcNAc(b1-3)Gal(b1-4)GlcNAc(b1-3)Gal(b1-4)GlcNAc(b1-3)Gal(b1-4)GlcNAc(b1-2)Man(a1-6)]Man(b1-4)GlcNAc(b1-4)[Fuc(a1-6)]GlcNAc
In short: as §1

[16] = target: Gal(b1-4)GlcNAc(b1-3)Gal(b1-4)GlcNAc(b1-3)Gal(b1-4)GlcNAc(b1-3)Gal(b1-4)GlcNAc(b1-3)Gal(b1-4)GlcNAc(b1-2)[Gal(b1-4)GlcNAc(b1-3)Gal(b1-4)GlcNAc(b1-3)Gal(b1-4)GlcNAc(b1-3)Gal(b1-4)GlcNAc(b1-3)Gal(b1-4)GlcNAc(b1-6)]Man(a1-6)[Gal(b1-4)GlcNAc(b1-3)Gal(b1-4)GlcNAc(b1-3)Gal(b1-4)GlcNAc(b1-3)Gal(b1-4)GlcNAc(b1-3)Gal(b1-4)GlcNAc(b1-2)Man(a1-3)]Man(b1-4)GlcNAc(b1-4)[Fuc(a1-6)]GlcNAc
In short: as §1

[17] = target: Gal(b1-4)GlcNAc(b1-3)Gal(b1-4)GlcNAc(b1-3)Gal(b1-4)GlcNAc(b1-3)Gal(b1-4)GlcNAc(b1-3)Gal(b1-4)GlcNAc(b1-3)Gal(b1-4)GlcNAc(b1-2)Man(a1-3)[Gal(b1-4)GlcNAc(b1-3)Gal(b1-4)GlcNAc(b1-3)Gal(b1-4)GlcNAc(b1-3)Gal(b1-4)GlcNAc(b1-3)Gal(b1-4)GlcNAc(b1-3)Gal(b1-4)GlcNAc(b1-2)Man(a1-6)]Man(b1-4)GlcNAc(b1-4)GlcNAc
In short: as §1

[18] = target: Gal(b1-4)GlcNAc(b1-3)Gal(b1-4)GlcNAc(b1-3)GalNAc
In short: as §1

[19] = target: Gal(b1-4)GlcNAc(b1-3)Gal(b1-4)GlcNAc(b1-3)[Gal(b1-4)GlcNAc(b1-3)Gal(b1-4)GlcNAc(b1-6)]GalNAc
In short: as §1

B1: mCC1-Hexahis-Precomplexed (Mus musculus), P31809 (protein)
chain: MELASAHLHKGQVPWGGLLLTASLLASWSPATTAEVTIEAVPPQVAEDNNVLLLVHNLPLALGAFAWYKGNTTAIDKEIARFVPNSNMNFTGQAYSGREIIYSNGSLLFQMITMKDMGVYTLDMTDENYRRTQATVRFHVHPILLKPNITSNNSNPVEGDDSVSLTCDSYTDPDNINYLWSRNGESLSEGDRLKLSEGNRTLTLLNVTRNDTGPYVCETRNPVSVNRSDPFSLNIIYGPDTPIISPSDIYLHPGSNLNLSCHAASNPPAQYFWLINEKPHASSQELFIPNITTNNSGTYTCFVNNSVTGLSRTTVKNITVLEPVTQPFLQVTNTTVKELDSVTLTCLSNDIGANIQWLFNSQSLQLTERMTLSQNNSILRIDPIKREDAGEYQCEISNPVSVRRSNSIKLDIIFDPTQGGLSDGHHHHHH
[1]
  glycan array binding signal (z-score): -0.183
[2]
  glycan array binding signal (z-score): -0.228
[3]
  glycan array binding signal (z-score): 3.85
[4]
  glycan array binding signal (z-score): -0.066
[5]
  glycan array binding signal (z-score): -0.167
[6]
  glycan array binding signal (z-score): -0.053
[7]
  glycan array binding signal (z-score): -0.242
[8]
  glycan array binding signal (z-score): 4.96
[9]
  glycan array binding signal (z-score): -0.181
[10]
  glycan array binding signal (z-score): -0.194
[11]
  glycan array binding signal (z-score): -0.133
[12]
  glycan array binding signal (z-score): -0.19
[13]
  glycan array binding signal (z-score): -0.071
[14]
  glycan array binding signal (z-score): -0.227
[15]
  glycan array binding signal (z-score): -0.193
[16]
  glycan array binding signal (z-score): -0.084
[17]
  glycan array binding signal (z-score): 0.019
[18]
  glycan array binding signal (z-score): 6.28
[19]
  glycan array binding signal (z-score): 4.46
